B1: LINE1-mini (parent)
chain: GGCAGAGCUCAACACAGCGUGGCAAAGUGGCUGUGGCUAGACUGCC

The source gives no read counts; variants with many changes may rest on few reads.

In this data set the parent is B1. Kind of data set: self-cleavage, relative activity (ratio to wild type); higher = more cleavage; in vitro, sequencing; the parent is a self-cleaving ribozyme.
For the variant GGCAGAGGUCAACACAGCGAGGCAAAGUGGCUGUGGCUUGACUGCC [C8G U20A A39U], the self-cleavage was found to be 0.06.
On to GGCAGAGGUCAACACAGCGUGGCAAAGUGGCUGCGACUAGACUGUC [C8G U34C G36A C45U], for which the self-cleavage stood at 0.04.
Then GGCAGAGUUCAACACGGCGCGGCAAAGUGGCUUUGGCUAGACUGCC [C8U A16G U20C G33U], with 0.01; and GGCAGAGUUCCACGCAGCGUGGCAAAGUGGCUGUGGCUUGACUGCC [C8U A11C A14G A39U], with 0.01; and GGCAGAGUUCCACAUAGCGUGGCAAAGGGACUGGGACUAGACUGCC [C8U A11C C15U U28G G30A U34G G36A], with 0.01.
In the case of GGCAGAGGACAACAUAGCCUGGCAAAGUGGCUGUGGCCAGACUGAC [C8G U9A C15U G19C U38C C45A], the self-cleavage is 0.05.
Regarding GGCAGAGUUCAACACGGCGUGGCAAAGUGGCUGCGGCAAGACCGCC [C8U A16G U34C U38A U43C], the self-cleavage was 0.04.
In the case of GGCAGAGUUCAACACGGCGUGGCAUAGUGGCUGUAACUAGACUGCC [C8U A16G A25U G35A G36A], the self-cleavage turned out to be 0.05.
As for GGCAGAGUUCCAAACAGCGUGGCAAAGUGGCUGUUGUUAGACUGCC [C8U A11C C13A G35U C37U], the self-cleavage was determined as 0.04.
To GGCAGAGUUCGACACAGCGUGGCAAUGUGGGUGUGGCUAGACUGCC [C8U A11G A26U C31G] belongs 0.02.
To GGCAGAGUUCUACACAGCGUUGCAAAGUGGCUGUGGCUAGACUGCC [C8U A11U G21U] belongs 0.01; to GGCAGAGUUCAGCACAGCGGGGCAAAGUGGUUAUGGCUAGACUGCC [C8U A12G U20G C31U G33A], 0.08; to GGCAGAGGGAAAGACAGCGUGGCAAACUGGCUGUGGCGAGACUGCU [C8G U9G C10A C13G G27C U38G C46U], 0.01.
For the variant GGCAGAGUUCAUCACUGCGUGGCAAAGUGGCUGUGGCUAGACUUCC [C8U A12U A16U G44U], the self-cleavage was found to be 0.05.
GGCAGAGGCCAGCACAGCGCGGCAAAGUGGCUGUGGCUAGACUGCC [C8G U9C A12G U20C]: the self-cleavage was 0.01.
Then GGCAGAGUUCAUCACAGCGUGGCAGAGUGUCUGUGGCUGGACUGCC [C8U A12U A25G G30U A39G], with 0.06; and GGCAGAGUUCAUCGCAGCGUGGCAAACUGGCUGUGGCUAGGCUGCC [C8U A12U A14G G27C A41G], with 0.02; and GGCAGAGUUCUACACAGCGUGGCAAAGUGGCUGUGGCUAGGCUGCC [C8U A11U A41G], with 0.02.
As to GGCAGAGUUCCACACAGCGUGGCAAAGUGGCUGUGGCUAGAGUGUC [C8U A11C C42G C45U], the self-cleavage was 0.02.
Consider GGCAGAGUUCAACUCAGCGUGGCAAAGUGGCUGUGGCUAUACUGCC [C8U A14U G40U], for which the self-cleavage came out at 0.1.
With GGCAGAGUUCAACGCAGCGUGGCAAAUUGGCUGUGGCUAGUCUGCC [C8U A14G G27U A41U], the self-cleavage came to 0.21.
Take GGCAGAGUUCGACACAGCGUGGGAAAUUGGGCGUGGCUAGACUGCC [C8U A11G C23G G27U C31G U32C]: the self-cleavage turned out to be 0.02.
On to GGCAGAGUUCCACACACCGUGGCAAAGUGGCUGUGGCUAGACUGUC [C8U A11C G17C C45U], for which the self-cleavage amounted to 0.01.
To GGCAGAGGCCAACACAGCACGGCAAAGUGGCUGUGCCUACCCUGUC [C8G U9C G19A U20C G36C G40C A41C C45U] belongs 0; to GGCAGAGGUCAACACAGCGUGGCAAAGGGGCUGUGGCUAGCCUGCU [C8G U28G A41C C46U], 0.07.
GGCAGAGGUCAACACAGCGAGGCAAAGUGGCUGUGGCUAGACCGCC [C8G U20A U43C]: the self-cleavage is 0.
For the variant GGCAGAGUUCUACACAGCGUGGCAAAGUGGGUGUGGCUAGACUGCC [C8U A11U C31G], the self-cleavage is 0.
In the case of GGCAGAGGUCAACACAGCGUGGCAAAGUGGCUGGGGCUACACUGCC [C8G U34G G40C], the self-cleavage was 0.03.
To GGCAGAGUUCGACACCGCCUGGCAAAGUGGCUGUGGCUAGACUGCC [C8U A11G A16C G19C] belongs 0.03; to GGCAGAGUUCGUCACAGCGGGGCAAAGUGGCUGGGGAUAGACACCC [C8U A11G A12U U20G U34G C37A U43A G44C], 0.
GGCAGAGUUCAACACCGCGAGGCAACGUGGCUGUGGCUAAACUGCC [C8U A16C U20A A26C G40A]: the self-cleavage worked out at 0.02.
For GGCAGAGGACAACACAGCGUGGCAAAGUGGCUGUGGCUAGAUUGCC [C8G U9A C42U], the self-cleavage came to 0.03.
With GGCAGAGGGGAACACAGCGUGGCAAAGUGGCUGUGGCUACACUGCC [C8G U9G C10G G40C], the self-cleavage was determined as 0.02.
To GGCAGAGGUCAACACAGCGGGGUAAAGUGGCUGUGGCUAGACUGCC [C8G U20G C23U] belongs 0.27; to GGCAGAGUUCAGCACAGCUUGGCAAAACGGCUGUGGUCAGACUGCC [C8U A12G G19U G27A U28C C37U U38C], 0.03.
Regarding GGCAGAGUUCGAUACAGCGUGGCAAAGUGGCUGUGGCUAGACUGCC [C8U A11G C13U], the self-cleavage came to 0.23.
Consider GGCAGAGUUCAACUUAGCGUGGCAAAGUGGAUGUGGCUAGACUGCC [C8U A14U C15U C31A], for which the self-cleavage came to 0.32.
For GGCAGAGUUCAACUCCGCGUGGCAAAGUGGCUGUGGCUAGACUGCC [C8U A14U A16C], the self-cleavage is 0.03.
As to GGCAGAGGGCAACACAGCGUGACAAAGUGGCUGUGGCUAGACUGCC [C8G U9G G22A], the self-cleavage was 0.02.
On to GGCAGAGUUCAUCACAGCGUGGCAAAGUGGCUGUGGCUAGACUUCC [C8U A12U G44U], for which the self-cleavage came to 0.1.
Turning to GGCAGAGUUCACCAUAGGGUGGGAAAGUGGAUGUGGCUAGACUGCC [C8U A12C C15U C18G C23G C31A], the self-cleavage stood at 0.
For GGCAGAGGUCAACACAGCGUGGCAAAGAGGGUGUGGCUAGGCUGCC [C8G U28A C31G A41G], the self-cleavage worked out at 0.02.
To GGCAGAGUUCACCACCGCGUGGCAAAGUGGCUGUAGCUGGACUGCC [C8U A12C A16C G35A A39G] belongs 0; to GGCAGAGUUCAUCACAGCGUGGCAAAGUGGCUGUGGCUAGACCGCC [C8U A12U U43C], 0.07; to GGCAGAGUUCGACACAGCCUGGCAAAGUGGCUGUGGCUAGACUGCC [C8U A11G G19C], 0.02.
In the case of GGCAGAGGGCAACACAGCGUGGCAAAGUGGCUGUAGCUAGACUGCC [C8G U9G G35A], the self-cleavage came out at 0.16.
As to GGCAGAGUUCAACACCGCGUGGCAAAGCCGCUUUGGCUAGACUGCC [C8U A16C U28C G29C G33U], the self-cleavage was found to be 0.18.
Turning to GGCAGAGUUCACCACAGCGUGGAAAAGUGGCUGUGGCUAGACUGCC [C8U A12C C23A], the self-cleavage is 0.02.
In the case of GGCAGAGUUCAACUCAACGUGGCAAAGUGGCAGUGGCUAGACUGCC [C8U A14U G17A U32A], the self-cleavage was determined as 0.04.
Take GGCAGAGGUCAACACAGCGCGGCACAGUAGCUGUGCCUAGACUGCC [C8G U20C A25C G29A G36C]: the self-cleavage came out at 0.22.
As to GGCAGAGUUCAACCCAGCUUGGCAAAGUGGUUGUGGCUAGACUGCC [C8U A14C G19U C31U], the self-cleavage amounted to 0.01.
In the case of GGCAGAGGUCAACACAGCGUGGCAAAGGGGCUGUGUCUAGACUCCC [C8G U28G G36U G44C], the self-cleavage stood at 0.04.
Regarding GGCAGAGUUCCACACACCGUGGCAAAGUGGCUGUGGCUAGACUGCA [C8U A11C G17C C46A], the self-cleavage worked out at 0.
As for GGCAGAGUUCAACACCGCGUGGCAAAGUGGCUGUGGCUACACUGCC [C8U A16C G40C], the self-cleavage amounted to 0.
To GGCAGAGGUCAACACAGCGGGGCAAAGUGGCUGUGACUAGACUGCC [C8G U20G G36A] belongs 0.03; to GGCAGAGUUCAGCACAGCGUAGCAAAGUGGCUGUGGCUAGACUGCC [C8U A12G G21A], 0.03.

Values taken from the RNAGym collection of RNA variant scans (doi:10.7554/elife.90254).
